# Test results from PubChem BioAssay AID652104 (National Center for Advancing Translational Sciences (NCATS), 2013).
# Hit rate of the full screen: of about 410,000 compounds, about 7,200 (1.8%) were called active. Inconclusive means that the source gave no clear call. Such entries were picked first, then a sample of the others. Calls follow the shape of the dose curve; as a rule, active = well fitted activation curve with a large enough effect; inconclusive = small, poorly fitted or top-dose-only effect, or another doubt; inactive = no such curve, though single readings can be large or run the other way. No potency is given beside an inconclusive call; the fits are too rough.
# Experiment: qHTS of TDP-43 Inhibitors; also: nearly all actives have a fitted effect of over 50% in size; as to growth rescue (activation): % of control where 0% means no effect
# Settings: TDP-43 expressing yeast growth rescue, BacTiter-Glo, 24 h; growth rescue (activation): at 46.1 µM (top of the series) unless noted
# Outline: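 Cell-based yeast growth screen: TDP-43 expression induced in galactose, inoculum OD600=0.02 after raffinose pregrowth to mid-log. Read-out BacTiter-Glo luminescence at 24 hr, 30 deg C; inhibition of toxicity seen as signal increase.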
# Potency is read from the fitted curve at half-maximal effect; tags tell the direction and shape of the fitted curve.
Compound,Potency,growth rescue (activation)
O=C(Nc1ccc(Cl)cc1)P(=O)(O)c1ccccc1,active: 17.8 µM,–
Cc1noc(C)c1S(=O)(=O)Nc1ccc(C(C)C)cc1,"inconclusive [activator, partial curve]",–
Cc1ccc2nc(NC(=O)c3ccccn3)sc2c1,active: 10 µM,–
CC1(C(=O)NS(=O)(=O)c2ccc(Br)cc2)CCN1C(=O)C1(c2ccccc2)CC1 (configuration not stated),"inconclusive [activator, partial curve]",–
COc1ccc2c(c1)CC(C(=O)N1CCC(C(N)=O)CC1)CO2 (configuration not stated),"inconclusive [activator, single point]",–
COc1cc(-c2nnc(CSc3nnc(Nc4ccc(C(C)C)cc4)s3)o2)cc(OC)c1OC,"inconclusive [activator, partial curve]",–
Cc1nc2c(ccc3nc(NC(=O)Cc4ccccc4)sc32)s1,"inconclusive [activator, partial curve]",–
O=C(O)C/C(=C\c1ccc(Cl)cc1)c1nc2ccccc2o1,"inconclusive [activator, single point]",–
O=C(Nc1ccccc1F)c1nc[nH]c1C(=O)NCc1ccccc1,"inconclusive [activator, partial curve, poor fit]",–
O=C(NNC(=S)NCc1ccccc1)c1ccc(Br)cc1,"inconclusive [activator, full curve]",–
CCOc1ccc(OCCCC(=O)O)cc1,active: 12.6 µM,–
Cc1ccc(-c2nc(-c3ccncc3)no2)cc1C,"inconclusive [activator, single point]",–
COc1cc(OC)c(NC(=O)CCCn2c(=O)oc3ccccc32)cc1Cl,"inconclusive [activator, single point]",–
CCOC(=O)c1c(C)oc2ncnc(NCCc3ccccc3)c12,"inconclusive [activator, partial curve]",–
COc1ccc(C(=O)c2ccc(Cl)cc2Cl)cc1,"inconclusive [activator, partial curve]",–
Cc1ccc(/C=N/N(C)S(=O)(=O)c2ccc(C)cc2)cc1,–,inactive: -10.2%
COC1C(OC(=O)/C=C/C=C/C=C/C=C/C(=O)O)CCC2(CO2)C1C1(C)OC1CC=C(C)C (configuration not stated) (tested in a mixture with another compound),"inconclusive [activator, partial curve]",–
O=C(c1cc(COc2cccc(C(F)(F)F)c2)on1)N1CCCC1,"inconclusive [activator, partial curve]",–
COc1ccc(Cl)cc1NC(=O)CN(C)CC(=O)Nc1ccc(C)cc1Br,active: 17.8 µM,–
CCN(CC)c1ccc(NS(=O)(=O)c2ccc3c(c2)CCCN3C(C)=O)c(C)c1,"inconclusive [activator, partial curve]",–
CCOC(=O)NC(=O)COC(=O)c1cccc2ccccc12,"inconclusive [activator, single point]",–
CCOc1ccc2nc(SCC(=O)NC3CC3)sc2c1,"inconclusive [activator, single point]",–
COc1cc2c(cc1OC)C(c1ccc(Cl)cc1)N(c1ccc(C)c(F)c1)C(=O)C2 (configuration not stated),active: 35.5 µM,–
O=C(CCN1C(=O)C2C3C=CC(C3)C2C1=O)NC1CCCc2ccccc21 (configuration not stated),–,inactive: -3.02%

Compound,Potency,growth rescue (activation)
CN(Cc1c(F)cccc1Cl)C(=O)C1CC(=O)N(CCc2ccccc2)C1 (configuration not stated),"inconclusive [activator, partial curve]",–
CC1=C(C(=O)Nc2ccc(C(=O)N3CCN(c4ccccc4F)CC3)cc2)SCCO1,"inconclusive [activator, single point]",–
Cc1cc(C)c(C)c(S(=O)(=O)N2CCN(C(=S)NCC3CCCO3)CC2)c1C (configuration not stated),active: 22.4 µM,–
CCOC(=O)c1ccc(CSc2nnc3cc(C)c4ccccc4n23)cc1,active: 22.4 µM,–
Cc1cc2nc(-c3ccco3)c(Cc3cccc(Cl)c3)n2c(C)c1Br,active: 12.6 µM,–
CC(C)(C)S(=O)(=O)Cc1nc(-c2ccc(Cl)c(Cl)c2)cs1,"inconclusive [activator, single point]",–
COc1cccc(-c2ocnc2C(=O)Nc2ccc(N3CCOCC3)cc2N2CCOCC2)c1,"inconclusive [activator, single point]",–
CC(C)(C)c1ccc(-c2noc(CCC(N)=O)n2)cc1,"inconclusive [activator, single point]",–
Cc1nc(C)c(-c2csc(Nc3ccc(Cl)cn3)n2)s1,active: 12.6 µM,–
COc1ccccc1-c1nnc2sc(COc3ccc(F)cc3)nn12,active: 11.2 µM,–
CSc1nnc(C(C)(C)C)c(=O)n1/N=C/c1ccccc1,–,inactive: -7.45%
Cc1ccc(Nc2nc(C(=O)NCc3ccco3)cs2)cc1,"inconclusive [activator, single point]",–
Cc1ccc(NC(=O)Cn2c(-c3ccc4c(c3)OCO4)cn(-c3ccccc3)c2=O)cc1,–,inactive: -0.117%
O=C(O)C1C2C=CC(C3CC23)C1C(=O)O (configuration not stated),active: 14.1 µM,–
CCOC(=O)C1=C(C)NC(=S)NC1c1ccc(-c2ccc(Cl)cc2)o1 (configuration not stated),"inconclusive [activator, single point]",–
COc1c(F)c(F)c(C(=O)Nc2ccc(NC(=O)c3ccco3)cc2)c(F)c1F,"inconclusive [activator, full curve, poor fit]",–
O=C(NCc1ccccc1Cl)c1cccc(C(F)(F)F)c1,active: 35.5 µM,–
N/C(=N\OC(=O)CCC1CCCC1)c1ccccn1,"inconclusive [activator, single point]",–
Cc1ccc(CN2c3ccccc3S(=O)(=O)c3ccccc32)cc1,"inconclusive [activator, partial curve]",–
Cc1ccc(NC(=O)C2CCCC2)cc1S(=O)(=O)N1CCOCC1,–,inactive: 12.8%
Cc1ccc2oc(=O)c3cc(C(=O)N(Cc4ccccc4)C(C)C)sc3c2c1,–,inactive: 9.99%
O=C(CSC1=NCCS1)Nc1ccccc1F,"inconclusive [activator, partial curve, poor fit]",–
O=c1[nH]c(Nc2ccccc2)cc2ccccc12,"inconclusive [activator, partial curve]",–
Cc1ccc(OCCNC(=O)CNC(=O)c2ccc(C)c(C)c2)cc1,"inconclusive [activator, single point]",–

Compound,Potency,growth rescue (activation)
CSC1=NCCN1C(=O)c1ccc2ccccc2c1,"inconclusive [activator, single point]",–
COc1cc(CN(C(=O)COc2ccc(C)c(C)c2)c2ccccn2)cc(OC)c1OC,–,inactive: 19.5%
Cc1ccc(-c2nc3ccc(Cl)cn3c2Cc2ccccc2)cc1,"inconclusive [activator, partial curve]",–
COc1cccc(C(=O)CSc2nnnn2C)c1,"inconclusive [activator, single point]",–
Cc1nc2ccc(NC(=O)COc3ccccc3)cc2s1,"inconclusive [activator, single point]",–
Cc1ccc(S(=O)(=O)CCSc2nc(C)cc(C)c2C#N)cc1,"inconclusive [activator, single point]",–
CCCNC(=O)C(Cc1ccccc1)NC(=O)c1ccccc1 (configuration not stated),"inconclusive [activator, partial curve]",–
CCOC(=O)CN1C(=O)S/C(=C/C=C/c2ccc(N(C)C)cc2)C1=O,–,inactive: -1.84%
FC(F)(F)c1cc(CCN2C(=S)NC[C@@H]2Cc2ccccc2)cc(C(F)(F)F)c1,active: 22.4 µM,–
CCc1c(C)sc(NC(=O)C2CCCO2)c1C#N (configuration not stated),active: 22.4 µM,–
COCCN1Cc2cccc(C(=O)Nc3cc(OC)ccc3OC)c2C1=O,"inconclusive [activator, single point]",–
CCCCNC(=O)CCCn1c(=O)c2ccccc2n(Cc2ccccc2C)c1=O,–,inactive: 26.8%
CCc1c(C)sc2c1CCN(Cc1ccc(F)cc1)C2c1ccccc1 (configuration not stated),–,inactive: 4.52%
CC(C)c1ccc(NC(=O)C2Cc3c(-c4cccc(F)c4)ccnc3O2)cc1 (configuration not stated),"inconclusive [activator, single point]",–
CC(=O)c1ccc(NC(=O)c2ncn(-c3ccccc3)n2)cc1,"inconclusive [activator, full curve]",–
Clc1ccc(CSc2nnc(-c3cccnc3)o2)cc1,active: 11.2 µM,–
CC1CCCCC1NC(=O)COC(=O)c1ccc2c(=O)n3c(nc2c1)CCC3 (configuration not stated),"inconclusive [activator, partial curve]",–
CCNC(=S)N/N=C(\C)c1ccc(Cl)s1,"inconclusive [activator, partial curve]",–
CCC(c1nc2ccccc2[nH]1)n1c(=O)c(-c2ccccc2)nc2ccccc21 (configuration not stated),"inconclusive [activator, partial curve]",–
Cc1cccc2cc(/C=C/C(=O)c3ccco3)c(Cl)nc12,"inconclusive [activator, partial curve]",–
Cn1nc(C(=O)N2CCN(c3ccccc3F)CC2)c2c1-c1ccccc1SC2,active: 17.8 µM,–
CCCCCC1CCC(c2ccc(/C(N)=N/O)cc2)CC1 (configuration not stated),"inconclusive [activator, single point]",–
Fc1ccccc1NC(=S)NCCc1cccc(Cl)c1,"inconclusive [activator, single point]",–
Cc1c(CCNC(=O)Cc2ccccc2)sc2nc(-c3ccc(F)cc3)nn12,active: 10 µM,–
